# Laboratory results taken from PubChem BioAssay AID485294 (National Center for Advancing Translational Sciences (NCATS), 2010).
# Hit rate of the full screen: of about 370,000 compounds, about 150 (0.041%) were called active. Inconclusive results, whose numbers are uncertain, are shown with a selection of clear calls. Calls follow the shape of the dose curve; as a rule, active = well fitted inhibition curve with a large enough effect; inconclusive = small, poorly fitted or top-dose-only effect; inactive = flat fitted curve, though single readings scatter. Potencies of inconclusive entries are left out as doubtful fits.
# Target: Beta-lactamase (Escherichia coli (strain K12)) (UniProt P00811)
# Chain of UniProt P00811 (P00811 whole entry, looked up): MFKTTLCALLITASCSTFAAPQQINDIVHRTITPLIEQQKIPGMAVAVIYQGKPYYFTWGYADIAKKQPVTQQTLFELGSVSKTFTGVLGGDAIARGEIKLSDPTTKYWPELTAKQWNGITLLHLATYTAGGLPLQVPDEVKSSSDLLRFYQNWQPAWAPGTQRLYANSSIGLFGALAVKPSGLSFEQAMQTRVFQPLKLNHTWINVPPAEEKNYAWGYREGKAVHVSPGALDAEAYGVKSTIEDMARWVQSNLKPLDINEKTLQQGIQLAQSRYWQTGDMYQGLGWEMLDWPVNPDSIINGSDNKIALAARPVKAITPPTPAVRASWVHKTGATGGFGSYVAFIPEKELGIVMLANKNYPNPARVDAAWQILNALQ
# Assay: qHTS Inhibitors of AmpC Beta-Lactamase (assay with detergent); also: nearly all actives have a fitted effect of over 25% in size
# Settings: AmpC hydrolysis of nitrocefin, absorbance 480 nm, 0.01% Triton; series mostly up to 114 µM
# Method in brief: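 AmpC (5.3 nM in the dispensed reagent) in 20 mM phosphate pH 7.0 with 0.01% (detergent screen) or 0.0001% Triton X-100 was preincubated with compounds for 15 min at room temperature. Nitrocefin was then added from an 800 uM solution, and hydrolysis was followed at 480 nm.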
# Potency is read from the fitted curve at half-maximal effect; tags tell the direction and shape of the fitted curve.
row,Structure (SMILES),Potency
1,NC(=O)C1CCN(c2c([N+](=O)[O-])cc(C(F)(F)F)cc2[N+](=O)[O-])CC1,inactive
2,Cc1cc(Nc2ccc(C(=O)O)cc2)n2nc(C)nc2n1,"inconclusive [inhibitor, full curve]"
3,Cc1ccc2ncc(C(=O)Nc3ccc(F)cc3F)c(=O)n2c1,inactive
4,C/C(=N\NC(=O)c1ccc(Cn2cc([N+](=O)[O-])cn2)o1)c1cccc(NC(=O)c2cccnc2)c1,inactive
5,COc1cc(/C=C(\NC(=O)c2ccccc2)C(=O)Nc2nccs2)ccc1OC(C)=O,inactive
6,CC1(C)Cc2c(cnn2-c2ccccc2)C(=O)/C1=N\NC(=O)c1ccccc1,"inconclusive [inhibitor, single point]"
7,CCO[C@@H]1OC(C(=O)NCc2ccccc2)=C[C@H](c2ccc3c(c2)OCO3)[C@H]1CCCO,inactive
8,CC(C)(C)n1cc(C(=O)c2ccccc2)cc1-c1ccccc1,inactive
9,Cc1cc2c(c(=O)n1Cc1ccccc1)C1O[C@](CCCCN3C(=O)c4ccccc4C3=O)(Cc3cc(C#N)ccc31)O2,"inconclusive [inhibitor, full curve, poor fit]"
10,O=C(O)CCc1nnc(SCC(=O)Nc2ccc(Br)cc2)[nH]c1=O,"inconclusive [inhibitor, single point]"
11,Cc1cc2ccccc2c(=O)n1CC(=O)NCC(=O)N1CCCC1,inactive
12,COc1ccc(Cc2nnc(NC(=O)CSc3ccc(Cl)cc3)s2)cc1OC,"inconclusive [inhibitor, full curve, poor fit]"
13,Clc1ccc(-c2nnc(-c3ccccc3)nc2-c2c[nH]c3ccccc23)cc1,inactive
14,COC(=O)c1sc(N)c(C(=O)OC)c1COC(=O)CNS(=O)(=O)c1cccc(C#N)c1,"inconclusive [inhibitor, partial curve, poor fit]"
15,COc1ccc(CCNC(=O)c2ccc3c(c2)N(Cc2c(F)cccc2Cl)C(=O)CS3)cc1OC,inactive
16,Cc1cccc(OC(=O)CSc2nnc(CNC(=O)c3ccccc3)o2)c1C,inactive
17,Cc1cccc(-n2c(=S)[nH]c3sc4c(c3c2=O)CCc2ccccc2-4)c1,"inconclusive [inhibitor, partial curve]"
18,O=C(/C=C/c1ccc(Cl)cc1)N(Cc1ccccc1)C1CCS(=O)(=O)C1 (stereo unspecified),inactive
19,COC(=O)c1cc(S(=O)(=O)NCc2cccc(Br)c2)c[nH]1,inactive
20,O=C1CC[C@@H](CN(Cc2ccccc2)Cc2cn[nH]c2-c2cc3ccccc3o2)N1,"inconclusive [inhibitor, single point]"
21,O=C(Cn1cc(C(F)(F)F)cc(Cl)c1=O)Nc1cc(Cl)cc(Cl)c1,"inconclusive [inhibitor, partial curve]"
22,Cn1ncc(Br)c1C(=O)N1CCOCC1,"inconclusive [inhibitor, partial curve]"
23,O=C(Cc1ccccc1)N(Cc1cccnc1)c1nc2c(F)cc(F)cc2s1,inactive
24,CC(CC(=O)N1CCc2ccccc21)c1ccccc1 (stereo unspecified),inactive

row,Structure (SMILES),Potency
1,N#Cc1c(N)n(CCNC(=O)c2ccccc2)c2nc3ccccc3nc12,"inconclusive [inhibitor, partial curve, poor fit]"
2,CCCn1c(SCC(=O)NC(=O)Nc2ccc(C)cc2C)n[nH]c1=O,"inconclusive [inhibitor, single point]"
3,Cn1c(/N=C/c2ccccc2[N+](=O)[O-])nc2ccccc21,"inconclusive [inhibitor, full curve, poor fit]"
4,CC1(C(=O)O)CCC(C(=O)N2CCOCC2)C1(C)C (stereo unspecified),inactive
5,COc1ccc(OC)c(S(=O)(=O)NC2CC(=O)N(c3ccc(C)c(C)c3)C2)c1 (stereo unspecified),"inconclusive [inhibitor, full curve, poor fit]"
6,Cc1cc(CN(C)C(=O)c2ccc3nc(Cc4ccccc4F)oc3c2)on1,inactive
7,CS(=O)(=O)N1CCc2cc(C(=O)Nc3ccc(Cl)cc3)ccc21,"inconclusive [inhibitor, partial curve, poor fit]"
8,COc1ccccc1NC1CCCCC1NS(=O)(=O)c1ccc(C)cc1 (stereo unspecified),"inconclusive [inhibitor, full curve]"
9,CC1CC(C)(C)NC(=S)N1CCCC(=O)N1CCN(c2ccccc2F)CC1 (stereo unspecified),"inconclusive [inhibitor, single point]"
10,O=c1oc2ccccc2n1CSC1=NCCS1,"inconclusive [inhibitor, partial curve, poor fit]"
11,Cc1ccc(S(=O)(=O)Cn2nnnc2C(c2ccccc2)N2CCN(c3ccccc3)CC2)cc1 (stereo unspecified),inactive
12,COc1ccc(NC(=O)CSc2nc(NS(=O)(=O)c3ccc(C)cc3)cc(=O)[nH]2)cc1,"inconclusive [inhibitor, full curve, poor fit]"
13,CCOC(=O)Cc1csc(NC(=O)c2c(-c3c(Cl)cccc3Cl)noc2C)n1,"inconclusive [inhibitor, full curve]"
14,C=CCNC(=O)/C(=C\c1ccc(Br)cc1)NC(=O)c1ccccc1OC,inactive
15,C/C(=N\OC(=O)c1ccc(F)cc1)c1sc(-c2ccccc2)nc1C,"inconclusive [inhibitor, single point]"
16,O=C(NC1CC2CCC(C1)N2Cc1nnnn1Cc1ccco1)NC12CC3CC(CC(C3)C1)C2 (stereo unspecified),"inconclusive [inhibitor, full curve, poor fit]"
17,CCCN(c1ccc(OCC)cc1)c1ncnc2nc[nH]c12,"inconclusive [inhibitor, full curve, poor fit]"
18,Cc1ccc(CNC(=O)C2CCCN(c3nc(C)cc(C)n3)C2)cc1 (stereo unspecified),"inconclusive [inhibitor, single point]"
19,CCCS(=O)(=O)Nc1cccc(-c2nc3cccnc3s2)c1,inactive
20,O=C(O)CN1C(=O)/C(=C\c2cc(Br)ccc2OCc2ccccc2Cl)SC1=S,"inconclusive [inhibitor, single point]"
21,O=C(Sc1ccccc1)c1cccc(Cn2cc(C(F)(F)F)ccc2=O)c1,inactive
22,c1ccc(-c2nnc(CN3CCCc4ccccc43)o2)cc1,"inconclusive [inhibitor, full curve, poor fit]"
23,O=c1cc(NCc2ccccc2)nc2n1CCCS2,"inconclusive [inhibitor, partial curve, poor fit]"
24,O=C(CN1CCC(NC(=O)Nc2ccccc2)CC1)Nc1ccc([N+](=O)[O-])cc1,"inconclusive [inhibitor, full curve, poor fit]"

row,Structure (SMILES),Potency
1,CCC(C)N1C(=O)c2ccccc2C1C(=O)NC1CCCCCC1 (stereo unspecified),inactive
2,COc1ccc(C(=O)CCC(=O)Nc2cc(Cl)c(O)c(Cl)c2)cc1,inactive
3,Cn1c(=O)oc2cc(S(=O)(=O)N3CCCC(C(=O)NC4CCCc5ccccc54)C3)ccc21 (stereo unspecified),"inconclusive [inhibitor, full curve, poor fit]"
4,Cc1ccc(-n2ncc3ccccc3c2=O)cc1Cl,"inconclusive [inhibitor, full curve, poor fit]"
5,COc1ccc2[nH]c3c(C)c4ccncc4c(C)c3c2c1,inactive
6,C/C(=N\Nc1nccnc1Cl)c1ccc(Cl)c(Cl)c1,"inconclusive [inhibitor, full curve, poor fit]"
7,Cc1cc(C(=O)NCc2cccs2)c(C)o1,inactive
8,CC(=O)OC1C(OC(C)=O)N(C(C)=O)C(=O)N1C(C)=O (stereo unspecified),"inconclusive [inhibitor, partial curve, poor fit]"
9,CCn1nc(C(=O)Nc2nc(-c3ccccn3)cs2)c2ccccc2c1=O,inactive
10,COC(=O)c1ccc(NC2CC(=O)N(c3ccccc3C)C2=O)cc1 (stereo unspecified),"inconclusive [inhibitor, single point]"
11,CCCCN(C)C(=O)C1CCCN(S(=O)(=O)c2ccc3c(c2)oc(=O)n3C)C1 (stereo unspecified),"inconclusive [inhibitor, full curve, poor fit]"
12,c1ccc(C2=NNC(=NC3CC3)SC2)cc1,inactive
13,COc1ccc(C(=O)N(CCc2ccccc2)Cc2ccccc2)cc1S(=O)(=O)N1CCOCC1,"inconclusive [inhibitor, full curve, poor fit]"
14,O=[N+]([O-])c1ccc(COc2ccc(CNc3ccccc3)cc2)cc1,inactive
15,CN1C2CCC1CC(N(CCc1ccccc1)C(=O)c1ccc(Cl)cc1)C2 (stereo unspecified),inactive
16,N#Cc1c(/N=C/c2ccc(-c3ccccc3C(=O)O)o2)sc2c1CCCC2,"inconclusive [inhibitor, full curve, poor fit]"
17,CCn1cc(/C=C(\NC(=O)c2cc(OC)c(OC)c(OC)c2)C(=O)NCCCN2CCOCC2)c2ccccc21,inactive
18,Cc1ccc(N2CN(Cc3ccco3)CNC2=S)cc1,"inconclusive [inhibitor, single point]"
19,Cc1cccc(-n2nc(C(=O)c3ccco3)cc(-c3nc4ccccc4[nH]3)c2=N)c1,"inconclusive [inhibitor, partial curve]"
20,O=S(=O)(Nc1cccc(-n2cnnn2)c1)c1ccc(Cl)nc1,inactive
21,COc1ccc(-c2nc(CS(=O)(=O)CC(=O)NC3CCCCC3C)c(C)o2)cc1 (stereo unspecified),"inconclusive [inhibitor, full curve, poor fit]"
22,Cc1cnc(C(=O)OCC(=O)NC(=O)NC(C)C)cn1,"inconclusive [inhibitor, full curve]"
23,COc1ccccc1C(=O)Nc1ccc2c(C)cc(=O)oc2c1,inactive
